In the supplement of paper PMC10126150:
Sequences with one replicate were seen in a single cluster, so their values are uncertain.

Test system: ATP
Assay: switch fluorescence ratio, 500 uM ATP over buffer (Cy3 cluster intensity, sum of 5 cycles each) (fold (ratio)); higher = stronger signal-on switching upon ATP binding; sequences stand for … in TCGTCGGCAGCGTCAGATGTGTATAAGAGACAGTTTTTTTTTTTTTTTTTTTTTTTTT…TC
Conditions: aptamer strand: ATP DNA aptamer (quencher-CACCTGGGGGAGTATTGCGGAGGAAGG + anchor), 100 nM annealed; ATP concentration: 500 uM; one replicate
In short: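 The fluorescence ratio divides summed target-cycle Cy3 intensity by summed buffer-cycle Cy3 intensity for each cluster and is averaged per switch-domain sequence. Cy3-labelled switching-strand clusters on a modified Illumina MiSeq flow-cell were annealed to 100 nM quencher-labelled ATP aptamer, then imaged in selection buffer and again after 15 min with 500 uM ATP at 22 °C. Five such cycles were run, with NaOH stripping and re-annealing between them, and clusters outside 100-1000 RFU were excluded.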
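Note: ATP exposure 15 min at 22 °C before imaging.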

AAAAAGTCCC was tested, and the switch fluorescence ratio was 1.05.
GTATAGTCAA was tested, and the switch fluorescence ratio was 0.991.
TTTGTTTCTC gave a switch fluorescence ratio of 0.992.
For AAAAAAAACA, the switch fluorescence ratio was 0.982.
For CTTCTCAACA, the switch fluorescence ratio was 1.02.
For GAGCCTTTAC, the switch fluorescence ratio was 1.23.
In the case of GAGGGCCATG, the switch fluorescence ratio is reported as 1.01.
Sequence CCGTCTTCT has a switch fluorescence ratio of 0.984.
AGCACTTTCC was tested, and the switch fluorescence ratio was 1.74.
AAGGGCAAGT gave a switch fluorescence ratio of 1.04.
GTTGGAAGGG gave a switch fluorescence ratio of 1.01.
With GCAGGATGG the switch fluorescence ratio was 1.01.
Work on TTCTAGATTC yielded a switch fluorescence ratio of 0.998.
Work on GGAGTGGGG yielded a switch fluorescence ratio of 1.01.
With CAGGGCGGAG the switch fluorescence ratio was 1.03.
For CACTTGGACG, the switch fluorescence ratio was 1.04.
TACTTTTTC showed a switch fluorescence ratio of 0.968.
TAAATCTTAA gave a switch fluorescence ratio of 0.976.
TTTATACTTA showed a switch fluorescence ratio of 1.05.
In the case of GCGAAATATC, the switch fluorescence ratio is reported as 1.71.
GTAGCCCCTG showed a switch fluorescence ratio of 0.979.
Sequence CAGACGTGCT has a switch fluorescence ratio of 1.05.
Sequence ACAGGAAACT has a switch fluorescence ratio of 1.03.
Work on TCGCGCTACC yielded a switch fluorescence ratio of 1.71.
ACGTTTCACA gave a switch fluorescence ratio of 1.34.
Sequence ACTACCGCGC has a switch fluorescence ratio of 2.04.
For GTGCACTGGA, the switch fluorescence ratio was 1.07.
Sequence TGGTTCTAAA has a switch fluorescence ratio of 0.988.
Work on AGTGGACGAA yielded a switch fluorescence ratio of 0.999.
In the case of TCTTGCTTTT, the switch fluorescence ratio is reported as 1.04.
GTACGGTAGG showed a switch fluorescence ratio of 1.02.
AAGTGTAAAT was tested, and the switch fluorescence ratio was 1.03.
Work on TCATTCGCGG yielded a switch fluorescence ratio of 1.8.
With AGTTGGGCTG the switch fluorescence ratio was 1.05.
For CATATTCCGG, the switch fluorescence ratio was 1.01.
AGTCTGGAGT was tested, and the switch fluorescence ratio was 0.985.
ATGTATTCC was tested, and the switch fluorescence ratio was 1.02.
TAGCCTTCGT gave a switch fluorescence ratio of 1.15.
With TGGATGTAGA the switch fluorescence ratio was 1.03.
Sequence TAGTACGGCC has a switch fluorescence ratio of 1.15.
In the case of ATTCAGAGAC, the switch fluorescence ratio is reported as 1.02.
GGACTCCTAC gave a switch fluorescence ratio of 1.46.
For GCCATTGGTA, the switch fluorescence ratio was 1.01.
Sequence GTAAGTAGCA has a switch fluorescence ratio of 0.972.
Work on GAAAGACCGA yielded a switch fluorescence ratio of 1.18.
In the case of GCGCAGTCTA, the switch fluorescence ratio is reported as 1.03.
For ATGCAGCGCT, the switch fluorescence ratio was 1.01.
GGAACGTAGA gave a switch fluorescence ratio of 0.983.
TATTGAAATA gave a switch fluorescence ratio of 1.06.
GATTGATGTA showed a switch fluorescence ratio of 0.967.
CGTCATGTAG was tested, and the switch fluorescence ratio was 0.99.
ACGGTGAAGG showed a switch fluorescence ratio of 0.984.
ACTTCTCTCG was tested, and the switch fluorescence ratio was 1.15.
Work on GAGTATCGTC yielded a switch fluorescence ratio of 0.921.
Work on GACATTTGTG yielded a switch fluorescence ratio of 1.04.
Sequence CGGCGCCGTG has a switch fluorescence ratio of 1.09.
With GTTTGAATCA the switch fluorescence ratio was 0.975.
In the case of AGTCCCAACC, the switch fluorescence ratio is reported as 0.996.
Work on GCGTTATATC yielded a switch fluorescence ratio of 1.07.
AAATGTCAAC was tested, and the switch fluorescence ratio was 1.
In the case of GGGCAGGGTG, the switch fluorescence ratio is reported as 1.07.
CTGTGACGGT showed a switch fluorescence ratio of 0.961.
With GAAGGTGGCG the switch fluorescence ratio was 1.02.
Sequence GTCACCAAAT has a switch fluorescence ratio of 1.04.
For TCTAGGGATA, the switch fluorescence ratio was 1.
CACGGTTTTT gave a switch fluorescence ratio of 0.971.
CCAGACCCCA showed a switch fluorescence ratio of 1.05.
Work on TCGGCACTTA yielded a switch fluorescence ratio of 1.05.
CTGCCTAGCT showed a switch fluorescence ratio of 0.988.
CAGTACGAAC was tested, and the switch fluorescence ratio was 1.35.
CACGCGCACT showed a switch fluorescence ratio of 1.67.
GTGTTTTGCG showed a switch fluorescence ratio of 0.977.
TATAGTTTT gave a switch fluorescence ratio of 0.998.
Work on GGTTATAA yielded a switch fluorescence ratio of 0.97.
CGGTTTTATG showed a switch fluorescence ratio of 0.974.
For GGTTGTAGAG, the switch fluorescence ratio was 0.97.
TTGACTTGGT was tested, and the switch fluorescence ratio was 1.01.
Sequence TTGACTAGTG has a switch fluorescence ratio of 0.989.
GGAGTACTTT gave a switch fluorescence ratio of 0.985.
In the case of AATTATACAA, the switch fluorescence ratio is reported as 0.989.
For TTTATAACTT, the switch fluorescence ratio was 1.
Sequence AACGTGGTCC has a switch fluorescence ratio of 1.03.
Work on TAGTTATGCT yielded a switch fluorescence ratio of 0.986.
ACGGGCGAA showed a switch fluorescence ratio of 1.
Work on TTTTACGACT yielded a switch fluorescence ratio of 1.02.
For AGTTATTCGG, the switch fluorescence ratio was 1.01.
CGCAAGAGTG was tested, and the switch fluorescence ratio was 1.63.
With GCAAGGATGT the switch fluorescence ratio was 0.988.
In the case of AAGATAAATG, the switch fluorescence ratio is reported as 0.995.
With ATAACACCTT the switch fluorescence ratio was 1.24.
With GAAAGTGTT the switch fluorescence ratio was 0.992.
ATCAAATTAG was tested, and the switch fluorescence ratio was 0.989.
With CGCATGGTCA the switch fluorescence ratio was 1.14.
TTTGGCAA showed a switch fluorescence ratio of 1.1.
Work on CGTAGATCAT yielded a switch fluorescence ratio of 0.995.
For AAATTATGTG, the switch fluorescence ratio was 1.02.
With ATGGGACCTA the switch fluorescence ratio was 1.02.
GCGAGAGTAA gave a switch fluorescence ratio of 1.06.
With TTATCTCCTG the switch fluorescence ratio was 1.
GAACCTAAAA gave a switch fluorescence ratio of 0.97.
ACGGGATTAC was tested, and the switch fluorescence ratio was 1.45.
With AGCAGATCTC the switch fluorescence ratio was 1.24.
Sequence GACGTATTT has a switch fluorescence ratio of 1.06.
Sequence TTGTCGTTAA has a switch fluorescence ratio of 0.98.
TCGCGTCTCT was tested, and the switch fluorescence ratio was 1.07.
TGTTACTGTA gave a switch fluorescence ratio of 1.22.
In the case of TATCGAAATA, the switch fluorescence ratio is reported as 1.06.
TCGCTGGTTC gave a switch fluorescence ratio of 1.06.
Work on CGGGTATCGG yielded a switch fluorescence ratio of 0.987.
With TTTACTCTGC the switch fluorescence ratio was 1.38.
Sequence GAGGCCGC has a switch fluorescence ratio of 1.07.
TTCACCGTTT showed a switch fluorescence ratio of 0.97.
For TACGGTGTCG, the switch fluorescence ratio was 1.04.
GTATAGGGGG was tested, and the switch fluorescence ratio was 0.99.
Work on GGCGTACATG yielded a switch fluorescence ratio of 1.02.
Sequence CCAATGGTAT has a switch fluorescence ratio of 1.01.
Sequence GCTTGTGTCT has a switch fluorescence ratio of 1.04.
For CTTATATTGG, the switch fluorescence ratio was 1.01.
CCCCCCCCAA gave a switch fluorescence ratio of 1.38.
In the case of GTTTGGCAGT, the switch fluorescence ratio is reported as 1.01.
For GTTAATGAGT, the switch fluorescence ratio was 0.967.
In the case of ACTTATCCGG, the switch fluorescence ratio is reported as 1.01.
Work on GCTTTAATAT yielded a switch fluorescence ratio of 0.993.
For GACAAGCA, the switch fluorescence ratio was 0.971.
In the case of CTGCGCGATG, the switch fluorescence ratio is reported as 1.4.
For TCAGTTTTGG, the switch fluorescence ratio was 0.972.
In the case of GGTGCGAATA, the switch fluorescence ratio is reported as 1.13.
With CATGTGGTCG the switch fluorescence ratio was 0.989.
Work on AGACCGGCGA yielded a switch fluorescence ratio of 0.991.
ACTTCGCTTA gave a switch fluorescence ratio of 3.21.
In the case of AAAGGGCCGA, the switch fluorescence ratio is reported as 1.01.
AAGAGTAAGA was tested, and the switch fluorescence ratio was 1.01.
For AATCGAATT, the switch fluorescence ratio was 1.
ACTAAGTGAT was tested, and the switch fluorescence ratio was 1.03.
Work on CACACTTTTT yielded a switch fluorescence ratio of 0.961.
For GGACTGACCC, the switch fluorescence ratio was 1.14.
In the case of CAAGGCCGTG, the switch fluorescence ratio is reported as 0.954.
Sequence ATATAACTCA has a switch fluorescence ratio of 0.989.
Sequence CGTCAGGGGA has a switch fluorescence ratio of 0.995.
GGAGGGTCGT showed a switch fluorescence ratio of 0.92.
TCCGTGTCAT was tested, and the switch fluorescence ratio was 1.02.
For GATCTTTATC, the switch fluorescence ratio was 1.01.
With ATAAGTGTCG the switch fluorescence ratio was 0.966.
TTTCCCGATA was tested, and the switch fluorescence ratio was 1.01.
Work on GAGCCTCGTG yielded a switch fluorescence ratio of 1.03.
GATAGTGGAC gave a switch fluorescence ratio of 1.03.
Work on TAGTCTTAG yielded a switch fluorescence ratio of 0.999.
TTTTGTACCG was tested, and the switch fluorescence ratio was 1.01.
For CAGCCGTGCT, the switch fluorescence ratio was 1.03.
CAAGAAACGA showed a switch fluorescence ratio of 0.984.
In the case of AATATATCTG, the switch fluorescence ratio is reported as 1.07.
Sequence CGGAAGCCG has a switch fluorescence ratio of 1.09.
CTCTAGCTTC was tested, and the switch fluorescence ratio was 1.61.
TTCAAACATA showed a switch fluorescence ratio of 1.02.
TTGGTCACAT was tested, and the switch fluorescence ratio was 1.01.
Work on TTGCAAAACA yielded a switch fluorescence ratio of 1.1.
With TAAGCCCGTG the switch fluorescence ratio was 1.01.
AAGGTCAGAT was tested, and the switch fluorescence ratio was 1.03.
With GCAGTTAGCT the switch fluorescence ratio was 0.999.
With ATCGTGCTGT the switch fluorescence ratio was 1.02.
CCACTAAATA was tested, and the switch fluorescence ratio was 1.55.
With TCCGTGAGGG the switch fluorescence ratio was 1.03.
In the case of GGCTTATTGC, the switch fluorescence ratio is reported as 0.907.
In the case of TATACGT, the switch fluorescence ratio is reported as 1.04.
TGCTCCTATT was tested, and the switch fluorescence ratio was 1.03.
Sequence GGATCCAATT has a switch fluorescence ratio of 1.
With TCCGGTTGGT the switch fluorescence ratio was 0.984.
For CGCTACCGTA, the switch fluorescence ratio was 1.09.
For ACGATGGGCC, the switch fluorescence ratio was 0.996.
Sequence ATGGACGCGA has a switch fluorescence ratio of 1.35.
AGGCCGCCGC gave a switch fluorescence ratio of 1.
GTGAACATGG showed a switch fluorescence ratio of 0.967.
For AAACCAG, the switch fluorescence ratio was 0.921.
TAGGCGTAAG was tested, and the switch fluorescence ratio was 1.03.
With TGCCAGTCCC the switch fluorescence ratio was 1.07.
Work on CCCGTCGGTT yielded a switch fluorescence ratio of 1.07.
ATCTGACCCG was tested, and the switch fluorescence ratio was 1.14.
For ACGCGTGACA, the switch fluorescence ratio was 1.02.
With CAAAGAGGCT the switch fluorescence ratio was 1.04.
With TGAAGGCTTC the switch fluorescence ratio was 0.989.
Sequence ATACCGTTAC has a switch fluorescence ratio of 1.61.
CGAGACGGGA showed a switch fluorescence ratio of 0.999.
Sequence GCGACGAAAT has a switch fluorescence ratio of 2.32.
Sequence TCGATGTATG has a switch fluorescence ratio of 0.98.
In the case of ATGGTACTGT, the switch fluorescence ratio is reported as 1.09.
ATAATTTTTC was tested, and the switch fluorescence ratio was 0.988.
With TTCACATAGG the switch fluorescence ratio was 1.02.
With TTCTTATACG the switch fluorescence ratio was 0.952.
Sequence CAGCGGGCGG has a switch fluorescence ratio of 0.987.
With GGAAGGCTAT the switch fluorescence ratio was 0.986.
AGCTATCTGT was tested, and the switch fluorescence ratio was 1.02.
In the case of GAGAATGGTG, the switch fluorescence ratio is reported as 1.01.
GTGTGCATCC gave a switch fluorescence ratio of 0.999.
CGATCGACGC gave a switch fluorescence ratio of 1.88.
Sequence TCGTCATAAT has a switch fluorescence ratio of 1.02.
For TCTCAGTTTA, the switch fluorescence ratio was 0.981.
Work on GCTCGGGGG yielded a switch fluorescence ratio of 0.958.
Work on TGGGTAACCT yielded a switch fluorescence ratio of 1.22.
For GGGGTGGAG, the switch fluorescence ratio was 1.01.
Sequence TTGCGTGGCT has a switch fluorescence ratio of 0.958.
For ATTGAACTTA, the switch fluorescence ratio was 0.981.
